Drawing on the antibiotic and cytotoxicity screens of Wong et al. (2023), this text covers cytotoxicity call and growth inhibition call for 24 molecules.

Some of the results follow.

One experiment deals with HSkMC. In words: cytotoxicity call (relative viability < 0.9). To be noted: 10 µM.
The next experiment has as its system HepG2. Kind of experiment: cytotoxicity call (relative viability < 0.9). To be noted: 10 µM.
The test system of the next experiment is S. aureus RN4220. In words: growth inhibition call (relative growth <= 0.2). Particulars: 50 µM.

Regarding `C[C@H](CO)N1C[C@H](C)[C@H](CN(C)C)Oc2ccc(NS(C)(=O)=O)cc2CC1=O`, the cytotoxicity call in the experiment on HSkMC and in the experiment with HepG2 was “inactive” each time. In the experiment with S. aureus RN4220, the growth inhibition call was “inactive”.
`C[C@@H]1CCCCO[C@@H](CN(C)S(=O)(=O)c2ccc(F)cc2)[C@@H](C)CN([C@@H](C)CO)C(=O)c2cc(NS(=O)(=O)c3cn(C)cn3)ccc2O1`: the cytotoxicity call with HSkMC and in the experiment on HepG2 was “inactive” throughout. The growth inhibition call with S. aureus RN4220 is “inactive”.
For `CC(C)NC(=O)Nc1ccc2c(c1)C(=O)N([C@@H](C)CO)C[C@@H](C)[C@H](CN(C)CC1CCCCC1)OCCCC[C@@H](C)O2`, the cytotoxicity call with HSkMC and in the experiment on HepG2 was “inactive” throughout. In the experiment with S. aureus RN4220, the growth inhibition call is “inactive”.
With `COc1ccc(NC(=O)N(C)C[C@H]2Oc3cc(C#CCN(C)C)ccc3S(=O)(=O)N([C@@H](C)CO)C[C@H]2C)cc1`, the cytotoxicity call in the experiment with HSkMC and in the experiment with HepG2 was “inactive” each time. For the same molecule, in the experiment on S. aureus RN4220, the growth inhibition call was “inactive”.
Consider `C[C@H](CO)N1C[C@H](C)[C@H](CN(C)Cc2ccncc2)Oc2c(NS(=O)(=O)c3ccccc3)cccc2C1=O`, for which the cytotoxicity call with HSkMC and in the experiment on HepG2 was “inactive” throughout. The growth inhibition call with S. aureus RN4220 was “inactive”.
On to `CS(=O)(=O)Nc1ccc([N+](=O)[O-])cc1Oc1ccccc1`, for which the cytotoxicity call in the experiment with HSkMC and in the experiment on HepG2 was “inactive” each time. In addition, the growth inhibition call in the experiment with S. aureus RN4220 was “inactive”.
`CC(CN1c2ccccc2Sc2ccccc21)N(C)C.Cl` (configuration not stated): in the experiment with HSkMC, the cytotoxicity call is “inactive”. Besides, the cytotoxicity call with HepG2 is “active”. The growth inhibition call in the experiment on S. aureus RN4220 was “inactive”.
As to `COc1ccc(NC(=O)N(C)C[C@H]2Oc3c(NS(C)(=O)=O)cccc3C(=O)N([C@H](C)CO)C[C@@H]2C)cc1`, the cytotoxicity call with HSkMC and with HepG2 was “inactive” throughout. Besides, the growth inhibition call with S. aureus RN4220 is “inactive”.
In the case of `C[C@@H]1CCCCO[C@H](CN(C)C(=O)Cc2ccccc2)[C@@H](C)CN([C@@H](C)CO)C(=O)c2cc(NC(=O)Nc3ccc4c(c3)OCO4)ccc2O1`, the cytotoxicity call in the experiment on HSkMC and in the experiment on HepG2 was “inactive” in each case. Moreover, the growth inhibition call with S. aureus RN4220 is “inactive”.
Take `C[C@H](CO)N1C[C@H](C)[C@H](CN(C)Cc2ccncc2)OCCCC[C@H](C)Oc2ccc(NC(=O)Nc3ccc4c(c3)OCO4)cc2C1=O`: the cytotoxicity call with HSkMC and with HepG2 was “inactive” each time. Also, the growth inhibition call in the experiment on S. aureus RN4220 is “inactive”.
Take `C[C@@H]1CCCCO[C@H](CN(C)C(=O)Nc2ccc(F)cc2)[C@H](C)CN([C@H](C)CO)C(=O)c2cc(NC(=O)c3ccccc3)ccc2O1`: the cytotoxicity call with HSkMC and with HepG2 was “inactive” in each case. Further, the growth inhibition call in the experiment on S. aureus RN4220 is “inactive”.
For `Cc1noc(C)c1NC(=O)Nc1ccc2c(c1)C(=O)N([C@H](C)CO)C[C@@H](C)[C@H](CN(C)C(=O)Nc1ccc(C(F)(F)F)cc1)O2`, the cytotoxicity call in the experiment with HSkMC and with HepG2 was “inactive” in each case. Besides, in the experiment on S. aureus RN4220, the growth inhibition call is “inactive”.
Consider `C[C@@H]1CCCCO[C@@H](CN(C)CC2CCCCC2)[C@@H](C)CN([C@@H](C)CO)C(=O)c2cc(NC(=O)CCCN(C)C)ccc2O1`, for which the cytotoxicity call with HSkMC and in the experiment on HepG2 was “inactive” each time. In addition, the growth inhibition call in the experiment on S. aureus RN4220 was “inactive”.
With `COCC(=O)Nc1ccc2c(c1)C(=O)N(C)C[C@H](OC)[C@@H](C)CN(Cc1ccccc1OC)[C@@H](C)CO2`, the cytotoxicity call in the experiment on HSkMC and in the experiment with HepG2 was “inactive” throughout. The growth inhibition call in the experiment with S. aureus RN4220 was “inactive”.
With `CO[C@@H]1CN(C)C(=O)c2cc(NC(=O)Nc3ccccc3F)ccc2OC[C@@H](C)N(Cc2ccccc2C(=O)O)C[C@@H]1C`, the cytotoxicity call in the experiment with HSkMC and in the experiment with HepG2 was “inactive” throughout. For the same molecule, the growth inhibition call in the experiment with S. aureus RN4220 is “inactive”.
Take `C[C@@H]1CN([C@H](C)CO)S(=O)(=O)c2ccc(C3=CCCC3)cc2O[C@H]1CN(C)C(=O)C1CCOCC1`: the cytotoxicity call with HSkMC and in the experiment on HepG2 was “inactive” each time. Further, the growth inhibition call in the experiment with S. aureus RN4220 is “inactive”.
Consider `COc1ccc(NC(=O)N(C)C[C@H]2OCCCC[C@@H](C)Oc3ccc(NC(=O)Nc4ccccc4)cc3C(=O)N([C@H](C)CO)C[C@H]2C)cc1`, for which the cytotoxicity call with HSkMC and with HepG2 was “inactive” each time. For the same molecule, the growth inhibition call in the experiment on S. aureus RN4220 was “inactive”.
With `C[C@H](CO)N1C[C@H](C)[C@@H](CN(C)C(=O)Nc2ccc(F)cc2)Oc2ccc(NC(=O)CCCCCC(=O)Nc3ccccc3N)cc2CC1=O`, the cytotoxicity call in the experiment on HSkMC and with HepG2 was “inactive” throughout. In addition, in the experiment on S. aureus RN4220, the growth inhibition call was “inactive”.
In the case of `O=C(C[C@@H]1CC[C@H]2[C@@H](COC[C@H](O)CN2Cc2cccc(C(F)(F)F)c2)O1)NCCc1ccncc1`, the cytotoxicity call with HSkMC and with HepG2 was “inactive” throughout. Moreover, the growth inhibition call in the experiment with S. aureus RN4220 was “inactive”.
For `O=S(=O)(NCCCN(C/C=C/c1ccc(F)cc1)C/C=C/c1ccc(F)cc1)c1cccc2cnccc12`, the cytotoxicity call with HSkMC and with HepG2 was “inactive” throughout. Moreover, the growth inhibition call in the experiment with S. aureus RN4220 was “inactive”.
Consider `O=C(C[C@@H]1CC[C@@H]2[C@H](COC[C@H](O)CN2Cc2cc(F)ccc2F)O1)N[C@@H]1CCN(Cc2ccccc2)C1`, for which the cytotoxicity call in the experiment with HSkMC and in the experiment with HepG2 was “inactive” each time. In addition, the growth inhibition call in the experiment on S. aureus RN4220 is “inactive”.
In the case of `CC(C)NC(=O)N(C)C[C@@H]1Oc2ccc(NC(=O)CCC(F)(F)F)cc2CC(=O)N([C@H](C)CO)C[C@@H]1C`, the cytotoxicity call in the experiment on HSkMC (human skeletal muscle cells) and with HepG2 was “inactive” each time. In addition, the growth inhibition call with S. aureus RN4220 was “inactive”.
For `COc1ccc(S(=O)(=O)N(C)C[C@H]2OCCCC[C@@H](C)Oc3ccc(NS(=O)(=O)c4cn(C)cn4)cc3C(=O)N([C@@H](C)CO)C[C@@H]2C)cc1`, the cytotoxicity call in the experiment with HSkMC and with HepG2 was “inactive” throughout. The growth inhibition call with S. aureus RN4220 is “inactive”.
As for `Cc1ccc(S(=O)(=O)Nc2ccc3c(c2)C(=O)N([C@H](C)CO)C[C@H](C)[C@@H](CN(C)S(=O)(=O)c2ccc(Cl)cc2)OCCCC[C@@H](C)O3)cc1`, the cytotoxicity call in the experiment with HSkMC is “inactive”. Also, in the experiment on HepG2, the cytotoxicity call is “active”. Besides, the growth inhibition call with S. aureus RN4220 is “inactive”.
